From publication PMC12136788
This is one part of the list.

B1: chr15:49134392:49134529:-|CDS|ENSG00000166200|unk|FALSE|unique (ssRNA)
RNA: GGGAGUUCUACAGUCCGACGAUCAUAUUUGCUUUCCUAGACUGAUGAUGGAGAAGAUGAUCUGAAAAAAGGUACACAGUUAUUAGAAAUAUAUGCUUUGGAAAUUCAAAUGUACACAGCACAGAAAAAUAACAAAAAACUUAACAACAGAGGAUUGAGCAUCA
B2: ENSG00000087269:stop:overlap|stop_codon|ENSG00000087269|stop_codon|NA|stop_codon (ssRNA)
RNA: GGGAGUUCUACAGUCCGACGAUCGGCUGGCUGGUCUCGAAUUCCCGACCUCAGGUAAUCCACCUGCCUUGGCCCCCCAAUUAUAGGUGUGAGCCACAGCACCCAGCCAAAAAAGUAAUUUUUUUUAGAGUAAUAAUGCUAUAACAACAGAGGAUUGAGCAUCA
B3: chr7:138585310:138585366:+|3pUTR|ENSG00000122779|msi1_unk|total|mutant (ssRNA)
RNA: GGGAGUUCUACAGUCCGACGAUCCUCUUUAAGUUGAAAAGUAAAAAAUAUAUGUGGUUUGGAUGUGUGCUUUAAUUCAGCUUCCGAAAUUAAUACCACUACCCGUGAAUUAUAUGGCCUGACAAUAUGAAUCCGGUGUACUGUCAACAGAGGAUUGAGCAUCA
B4: chr2:61188134:61188237:-|CDS|ENSG00000115464|unk|total|mutant (ssRNA)
RNA: GGGAGUUCUACAGUCCGACGAUCAUCUCUCAGUUGUGGCCAUUCCAGAGGACUCUUCCGUCAUAUGCAGCAACAUGACAUUUCCGAUACCCUGUGCCGGACCAUUGAAUCUACAAUCCAUGUCGUCACAAGGAUAUCUGGCAACAACAGAGGAUUGAGCAUCA
B5: chr19:13097725:13097826:+|3pUTR|ENSG00000008441|msi1|total|mutant (ssRNA)
RNA: GGGAGUUCUACAGUCCGACGAUCUGAGCCAGACGCCAACUUGACCCUCACCAGCAUUAUCAGGAGCGCGCUCAGCAAGUUGGCCGUUUCCUCCCCCCUUUCCCGGCGCCCCUCCCGCCCCCAUUCAACAUCUCUCAUCCUAUCCAACAGAGGAUUGAGCAUCA
B6: chr10:68442948:68443070:-|CDS|ENSG00000138346|unk|FALSE|unique (ssRNA)
RNA: GGGAGUUCUACAGUCCGACGAUCCCCAAUUGUGAUGCUGCCCAAAAUAGAAGAAGAAACCCAGCAUCUGAAGCAAACACACUUAGAAUAUUUCAGCCUUUGGUGUCUAAUGUUAACCCUGGAGUCACAAUCGAAGGAUAAUAACAACAGAGGAUUGAGCAUCA
B7: chr3:52836218:52836623:-|three_prime_utr|ENSG00000213533|control|control|control (ssRNA)
RNA: GGGAGUUCUACAGUCCGACGAUCAGCAACUGCCCAGUGAAAAGCCAAACAUGCUCUUGCCAUGUCCAUCUCCACUUCUUCGCUAGUGAGAAUUAAAGCAAGUCCGUCUCUGAGGAGGACAUCGUGUUGGGGAGGUAGAGUAUACAACAGAGGAUUGAGCAUCA
B8: chr1:225491636:225491737:-|3pUTR|ENSG00000154380|msi1|total|mutant (ssRNA)
RNA: GGGAGUUCUACAGUCCGACGAUCGUACUUUGAAUUCCACCGGAAAAAGCACUCAGAAGAAAAAGUCUACAUUGGCCCGUGUUCCGAUUGAGAGUUAAUUUUCCCAUCAAGUCCAAAAGUUUCCAUCCAAGUCUACCGAAACUGCAACAGAGGAUUGAGCAUCA
B9: chr7:44624349:44624495:+|CDS|ENSG00000105953|unk|total|mutant (ssRNA)
RNA: GGGAGUUCUACAGUCCGACGAUCAGGCCAUUGACGGCUUCCCAGACUGUUAAGACAUUUUCACAAAACAGACCAGCAGCAGCCCGGACAUUUCAACAGAUUCGGUGCUAUUCUGCACCUGUUGCUGCUGAGCCCUUUCUCAGUCAACAGAGGAUUGAGCAUCA
B10: chr1:24840999:24841100:+|3pUTR|ENSG00000169504|msi1|total|mutant (ssRNA)
RNA: GGGAGUUCUACAGUCCGACGAUCGCUACUCCUUCCUGCCGAGCAGAAAUUGUAUUUUGCACGAACAUGCAGUUAUUGAAGAUCCGGAUCAAGGACCGACAAGGUACCGCCGUUAUCUUAAAAUAUACACUCCUAAGCAGUAUUCAACAGAGGAUUGAGCAUCA
B11: chr1:10178627:10178729:+|CDS|ENSG00000130939|unk|FALSE|unique (ssRNA)
RNA: GGGAGUUCUACAGUCCGACGAUCUAAGGAAUUGUUUGAAGAAGUUAUUUCAAAGAUGCGGAAGGCAGGGAUCAAAUCCACAAUAGCAAUAGAAAAAUUUAAGCUGCUCGCCGAGAAAGUGGAGGAGAUAGUGGCCAAGAACGCCAACAGAGGAUUGAGCAUCA
B12: chr3:10940499:10940600:+|3pUTR|ENSG00000132164|unk|FALSE|unique (ssRNA)
RNA: GGGAGUUCUACAGUCCGACGAUCGGGGAGGGCAAUGUGGGGGCAGGGGAACAUGUCAUUGUGAUGACUUUUUUGAUAUUCAUUAGAAACAAUACAUCCUUUCUGAGAUAUUUACAGUAUUAUUAAAAAAUGAAAAAGGUUGUACAACAGAGGAUUGAGCAUCA
B13: chr1:62648186:62648303:-|CDS|ENSG00000116641|unk|FALSE|unique (ssRNA)
RNA: GGGAGUUCUACAGUCCGACGAUCGAUGACCUUAAAAGACGUUCAAUGUCAAUAGAUGAUACCCCAAGGGGUAGCUGGGCCUGUAGUAUCUUUGACUUGAAAAAUUCACUUCCUGAUGCUUUGCUUCCCAAUUUACUUGAUCGACAACAGAGGAUUGAGCAUCA
B14: ENSG00000164929:stop:overlap|stop_codon|ENSG00000164929|stop_codon|NA|stop_codon (ssRNA)
RNA: GGGAGUUCUACAGUCCGACGAUCUAACAGAUAGCAUCCAACAGAUGGACAGAAGUCGAAGAAUCACAAAGAACUGUGUCAACUAGCAGAGAGUCCAAGCAGAAGGGCAGAUGGACUUCUUCAGUGUCCUUCACGGCACUGGAUCAACAGAGGAUUGAGCAUCA

What follows are binders tested against MSI1 full-length (mouse, UniProt Q61474 1-362) (assay: nsRBNS (natural sequence RNA bind-n-seq); RBNS binding buffer (assumed for nsRBNS): 25 mM Tris pH 7.5, 150 mM KCl, 3 mM MgCl2, 0.01% Triton X-100, 500 ug/ml BSA, 20 U/ml SUPERase-In, 4 C; UNK is unkempt and MSI1 is Musashi-1; names of the RNAs are library labels; protein concentration not given here; high values mean tight binding).
UniProt Q61474, sequence (Q61474 whole entry): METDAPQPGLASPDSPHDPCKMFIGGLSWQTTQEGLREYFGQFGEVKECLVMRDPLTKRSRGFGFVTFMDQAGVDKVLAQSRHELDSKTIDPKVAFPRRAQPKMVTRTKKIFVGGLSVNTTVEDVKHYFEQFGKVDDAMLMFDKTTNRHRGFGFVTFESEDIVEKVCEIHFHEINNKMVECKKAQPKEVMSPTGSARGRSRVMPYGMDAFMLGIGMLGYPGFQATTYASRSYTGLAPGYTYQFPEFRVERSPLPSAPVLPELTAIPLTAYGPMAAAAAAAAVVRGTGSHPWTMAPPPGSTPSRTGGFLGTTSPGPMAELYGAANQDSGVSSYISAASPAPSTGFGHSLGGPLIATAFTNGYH

Q: For B1, which binding signal is on record?
A: 0.819 enrichment R

Q: B2 was tested. Which binding signal did it give?
A: 1.04 enrichment R

Q: How did the binding signal turn out when B3 was run?
A: 0.738 enrichment R

Q: For B4, which binding signal is on record?
A: 0.343 enrichment R

Q: B5 was tested. Which binding signal did it give?
A: 0.765 enrichment R

Q: Which binding signal does the source give for B6 here?
A: 7.91 enrichment R

Q: Which binding signal does the source give for B7 here?
A: 0.577 enrichment R

Q: B8 was tested. Which binding signal did it give?
A: 0.375 enrichment R

Q: B9 was tested. Which binding signal did it give?
A: 0.283 enrichment R

Q: How did the binding signal turn out when B10 was run?
A: 0.487 enrichment R

Q: For B11, which binding signal is on record?
A: 3.47 enrichment R

Q: With B12 as the binder, how does the binding signal read?
A: 2.63 enrichment R

Q: With B13 as the binder, how does the binding signal read?
A: 0.378 enrichment R

Q: How did the binding signal turn out when B14 was run?
A: 0.309 enrichment R
